# Laboratory results reported in publication PMC4336329 (PLoS ONE, 2015).
# The campaign covered roughly 310,000 compounds. About 2,200 (0.71%) showed an effect of 50% or more. The effect is printed as a negative number. The list shows a part of the results.
# Target: human ether-à-go-go-related gene (hERG) potassium channel (human, UniProt Q12809)
# Assay: primary screen, population patch clamp on CHO cells stably expressing hERG
# human ether-à-go-go-related gene (hERG) potassium channel, sequence (Q12809 whole entry, looked up): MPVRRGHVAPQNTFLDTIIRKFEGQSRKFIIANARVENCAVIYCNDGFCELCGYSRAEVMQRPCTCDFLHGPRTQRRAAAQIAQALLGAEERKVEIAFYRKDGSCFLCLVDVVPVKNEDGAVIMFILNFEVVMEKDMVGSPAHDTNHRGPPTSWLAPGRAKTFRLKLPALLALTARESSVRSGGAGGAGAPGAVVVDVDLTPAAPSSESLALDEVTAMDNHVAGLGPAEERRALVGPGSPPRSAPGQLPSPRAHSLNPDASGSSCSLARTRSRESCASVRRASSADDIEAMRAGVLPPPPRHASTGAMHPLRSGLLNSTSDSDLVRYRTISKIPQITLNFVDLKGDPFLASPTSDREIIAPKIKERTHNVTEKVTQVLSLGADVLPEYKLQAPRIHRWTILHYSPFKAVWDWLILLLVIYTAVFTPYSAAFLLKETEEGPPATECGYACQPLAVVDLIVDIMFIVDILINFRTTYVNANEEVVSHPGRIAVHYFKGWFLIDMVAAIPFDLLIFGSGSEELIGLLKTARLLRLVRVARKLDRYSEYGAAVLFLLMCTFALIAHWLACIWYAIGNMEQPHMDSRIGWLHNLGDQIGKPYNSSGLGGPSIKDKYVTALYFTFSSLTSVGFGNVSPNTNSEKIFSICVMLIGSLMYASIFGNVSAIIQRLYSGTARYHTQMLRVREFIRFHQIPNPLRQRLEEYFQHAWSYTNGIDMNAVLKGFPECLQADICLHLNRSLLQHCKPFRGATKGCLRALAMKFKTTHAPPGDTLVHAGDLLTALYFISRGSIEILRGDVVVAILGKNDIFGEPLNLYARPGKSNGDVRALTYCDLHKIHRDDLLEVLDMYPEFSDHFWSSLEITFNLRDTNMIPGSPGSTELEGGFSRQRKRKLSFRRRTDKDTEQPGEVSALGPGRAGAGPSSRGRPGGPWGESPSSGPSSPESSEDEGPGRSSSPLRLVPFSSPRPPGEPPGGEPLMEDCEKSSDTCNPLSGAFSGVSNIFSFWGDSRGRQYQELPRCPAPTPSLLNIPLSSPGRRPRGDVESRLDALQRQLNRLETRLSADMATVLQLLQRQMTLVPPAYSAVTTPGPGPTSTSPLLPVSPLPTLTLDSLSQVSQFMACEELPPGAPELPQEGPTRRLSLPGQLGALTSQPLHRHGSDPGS
row,Structure (SMILES),"hERG current change (%, negative = inhibition) at 1uM [%]"
1,CCOCCCNCc1cccc(OCc2ccc(F)cc2)c1,-5.15
2,CC(=O)COc1coc(CN2CCN(c3ccc(F)cc3)CC2)cc1=O,19.2
3,Cc1ccc(C)c(NC(=O)Nc2ccc3c(c2)OCO3)c1,10.3
4,NC(N)=N/N=C/c1ccc(N(c2ccccc2)c2ccccc2)cc1.O=[N+]([O-])O,12.7
5,Cc1[nH]c2ccccc2c1/C=N/NC(=O)c1cc(C(C)(C)C)[nH]n1,8.06
6,Cc1ccc(-c2csc(N)n2)s1,7.86
7,CCOC(=O)[C@H]1[C@H]2COc3ccc(Br)cc3[C@H]2N2C(=O)CNC(=O)[C@@]12C,9.77
8,Cn1c(Cl)cnc1C(O)c1ccccc1 (stereo not drawn),2.79
9,COc1ccc2oc(=O)c(-c3csc(Nc4cccc(O)c4)n3)cc2c1,20.5
10,O=C(CSc1nc2ccccc2[nH]1)N/N=C/C=C/c1ccccc1[N+](=O)[O-],3.64
11,O=C(CCc1nc2ccccc2c(=O)[nH]1)N1CCN(S(=O)(=O)c2ccc(F)cc2)CC1,-3.14
12,Cc1c(S(=O)(=O)NCCc2ccccc2)c(=O)n(C)c(=O)n1C,11.8
13,Nc1ccc2nc(-c3cccc(-c4nc5ccc(N)cc5[nH]4)c3)[nH]c2c1,2.17
14,CCOC(=O)Cc1csc(NC(=S)NC(=O)c2ccc(C)cc2)n1,15.8
15,CCOCCCNC(=O)CCC(=O)NNc1nc2ccccc2c2nc(C)nn12,9.53
16,N#C/C(=C(/O)COC(=O)COc1ccc(Cl)cc1)c1nc2ccccc2[nH]1,13.3
17,Cn1nnnc1SCc1c(F)cccc1F,8.28
18,CC(=O)O.c1ccc2c(c1)NC1(CCCCCC1)n1c-2nc2ccccc21,9.45
19,Cn1c(CC(=O)Nc2cccc(Cl)c2Cl)nnc1SCC(=O)NC1=NCCS1,10.6
20,O=C(CSc1ccc(-c2ccc(F)cc2)nn1)N1CCN(c2ccccc2)CC1,-2.59
21,COc1ccc(-c2noc(CN3CCN(c4ccccc4)CC3)n2)cc1,11.3
22,COc1cc(C(=O)N(CCc2ccccc2)C2CC3CCC(C2)N3C)cc(OC)c1OC.Cl.O (stereo not drawn),-1.79
23,CCN(CC)C(=O)CN(C#N)c1nc(C)cc(C)n1,16
24,COc1ccc(-c2[nH]ncc2CN2CCC(OCc3ccccn3)CC2)c(F)c1,2.13
